# Positions count from the first letter of the chain named. The list shows a part of the results.
# B1: AUAGCAC (DNA:RNA)
# RNA: GGGAGACCGGAAUUCAGAUUGUCCAUAGCACUUAAAUCCCGUCGUAGCCACCA
# DNA 1: CAATCTGAATTCCGGTCTCCC
# DNA 2: TGGTGGCTACGACGGGATT
# B2: AAUCACU (DNA:RNA)
# RNA: B1 RNA with U26A, A27U, G28C, C29A, A30C, C31U
# DNA 1: CAATCTGAATTCCGGTCTCCC
# DNA 2: TGGTGGCTACGACGGGATT
# B3: AUCACGA (DNA:RNA)
# RNA: B1 RNA with A27C, G28A, A30G, C31A
# DNA 1: CAATCTGAATTCCGGTCTCCC
# DNA 2: TGGTGGCTACGACGGGATT
# B4: ACUUAAC (DNA:RNA)
# RNA: B1 RNA with U26C, A27U, G28U, C29A
# DNA 1: CAATCTGAATTCCGGTCTCCC
# DNA 2: TGGTGGCTACGACGGGATT
# B5: CACAUAA (DNA:RNA)
# RNA: B1 RNA with A25C, U26A, A27C, G28A, C29U, C31A
# DNA 1: CAATCTGAATTCCGGTCTCCC
# DNA 2: TGGTGGCTACGACGGGATT
# B6: UGAUACC (DNA:RNA)
# RNA: B1 RNA with A25U, U26G, G28U, C29A, A30C
# DNA 1: CAATCTGAATTCCGGTCTCCC
# DNA 2: TGGTGGCTACGACGGGATT
# B7: UUUCCUA (DNA:RNA)
# RNA: B1 RNA with A25U, A27U, G28C, A30U, C31A
# DNA 1: CAATCTGAATTCCGGTCTCCC
# DNA 2: TGGTGGCTACGACGGGATT
# B8: CUUGCCC (DNA:RNA)
# RNA: B1 RNA with A25C, A27U, A30C
# DNA 1: CAATCTGAATTCCGGTCTCCC
# DNA 2: TGGTGGCTACGACGGGATT
# B9: GUCGAUG (DNA:RNA)
# RNA: B1 RNA with A25G, A27C, C29A, A30U, C31G
# DNA 1: CAATCTGAATTCCGGTCTCCC
# DNA 2: TGGTGGCTACGACGGGATT
# B10: GCGACAC (DNA:RNA)
# RNA: B1 RNA with A25G, U26C, A27G, G28A
# DNA 1: CAATCTGAATTCCGGTCTCCC
# DNA 2: TGGTGGCTACGACGGGATT
# B11: CUGAUAC (DNA:RNA)
# RNA: B1 RNA with A25C, A27G, G28A, C29U
# DNA 1: CAATCTGAATTCCGGTCTCCC
# DNA 2: TGGTGGCTACGACGGGATT
# B12: AUCUUGC (DNA:RNA)
# RNA: B1 RNA with A27C, G28U, C29U, A30G
# DNA 1: CAATCTGAATTCCGGTCTCCC
# DNA 2: TGGTGGCTACGACGGGATT
# B13: UGGGAGU (DNA:RNA)
# RNA: B1 RNA with A25U, U26G, A27G, C29A, A30G, C31U
# DNA 1: CAATCTGAATTCCGGTCTCCC
# DNA 2: TGGTGGCTACGACGGGATT
# B14: UUGUUAG (DNA:RNA)
# RNA: B1 RNA with A25U, A27G, G28U, C29U, C31G
# DNA 1: CAATCTGAATTCCGGTCTCCC
# DNA 2: TGGTGGCTACGACGGGATT
# B15: CCGACAG (DNA:RNA)
# RNA: B1 RNA with A25C, U26C, A27G, G28A, C31G
# DNA 1: CAATCTGAATTCCGGTCTCCC
# DNA 2: TGGTGGCTACGACGGGATT
# B16: UGAUGGU (DNA:RNA)
# RNA: B1 RNA with A25U, U26G, G28U, C29G, A30G, C31U
# DNA 1: CAATCTGAATTCCGGTCTCCC
# DNA 2: TGGTGGCTACGACGGGATT
# B17: GGUUAGC (DNA:RNA)
# RNA: B1 RNA with A25G, U26G, A27U, G28U, C29A, A30G
# DNA 1: CAATCTGAATTCCGGTCTCCC
# DNA 2: TGGTGGCTACGACGGGATT
# B18: AUACUAA (DNA:RNA)
# RNA: B1 RNA with G28C, C29U, C31A
# DNA 1: CAATCTGAATTCCGGTCTCCC
# DNA 2: TGGTGGCTACGACGGGATT
# B19: UCGCCUC (DNA:RNA)
# RNA: B1 RNA with A25U, U26C, A27G, G28C, A30U
# DNA 1: CAATCTGAATTCCGGTCTCCC
# DNA 2: TGGTGGCTACGACGGGATT
# B20: GCUUCGC (DNA:RNA)
# RNA: B1 RNA with A25G, U26C, A27U, G28U, A30G
# DNA 1: CAATCTGAATTCCGGTCTCCC
# DNA 2: TGGTGGCTACGACGGGATT
# B21: GAAUUUG (DNA:RNA)
# RNA: B1 RNA with A25G, U26A, G28U, C29U, A30U, C31G
# DNA 1: CAATCTGAATTCCGGTCTCCC
# DNA 2: TGGTGGCTACGACGGGATT
# B22: GCCGCUU (DNA:RNA)
# RNA: B1 RNA with A25G, U26C, A27C, A30U, C31U
# DNA 1: CAATCTGAATTCCGGTCTCCC
# DNA 2: TGGTGGCTACGACGGGATT
# B23: CGUGACG (DNA:RNA)
# RNA: B1 RNA with A25C, U26G, A27U, C29A, A30C, C31G
# DNA 1: CAATCTGAATTCCGGTCTCCC
# DNA 2: TGGTGGCTACGACGGGATT
# B24: AAGGAUA (DNA:RNA)
# RNA: B1 RNA with U26A, A27G, C29A, A30U, C31A
# DNA 1: CAATCTGAATTCCGGTCTCCC
# DNA 2: TGGTGGCTACGACGGGATT
# B25: GUUUUUA (DNA:RNA)
# RNA: B1 RNA with A25G, A27U, G28U, C29U, A30U, C31A
# DNA 1: CAATCTGAATTCCGGTCTCCC
# DNA 2: TGGTGGCTACGACGGGATT
# B26: GUGAUGC (DNA:RNA)
# RNA: B1 RNA with A25G, A27G, G28A, C29U, A30G
# DNA 1: CAATCTGAATTCCGGTCTCCC
# DNA 2: TGGTGGCTACGACGGGATT
# B27: AUAGGAG (DNA:RNA)
# RNA: B1 RNA with C29G, C31G
# DNA 1: CAATCTGAATTCCGGTCTCCC
# DNA 2: TGGTGGCTACGACGGGATT
# B28: UUGUACC (DNA:RNA)
# RNA: B1 RNA with A25U, A27G, G28U, C29A, A30C
# DNA 1: CAATCTGAATTCCGGTCTCCC
# DNA 2: TGGTGGCTACGACGGGATT
# B29: UCAGAUG (DNA:RNA)
# RNA: B1 RNA with A25U, U26C, C29A, A30U, C31G
# DNA 1: CAATCTGAATTCCGGTCTCCC
# DNA 2: TGGTGGCTACGACGGGATT
# B30: UAGAUCA (DNA:RNA)
# RNA: GGGAGACCGGAAUUCAGAUUGUCCUAGAUCAUUAAAUCCCGUCGUAGCCACCA
# DNA 1: CAATCTGAATTCCGGTCTCCC
# DNA 2: TGGTGGCTACGACGGGATT
# B31: GUAGUCA (DNA:RNA)
# RNA: B1 RNA with A25G, C29U, A30C, C31A
# DNA 1: CAATCTGAATTCCGGTCTCCC
# DNA 2: TGGTGGCTACGACGGGATT
# Biological target: T1, RBFOX1 RRM RbFoxmut (Fox-RRM*) (Homo sapiens, UniProt Q9NWB1 109-208, R118D;E147R;N151S;E152T)
# T1 sequence: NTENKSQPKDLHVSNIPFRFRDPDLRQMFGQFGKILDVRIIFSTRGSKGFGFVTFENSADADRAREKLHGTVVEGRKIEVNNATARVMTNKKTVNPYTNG
# Assay: EMSA; HiTS-Eq, 1 nM pool, 10 min; buffer printed only for the single-RNA assays: 10 mM Tris pH 7.5, 150 mM NaCl, 3.4 mM EDTA, 0.001% NP-40, 30 C
# Details: tags: His6 N-terminal (pET28a); label: 5' 32P
# In short: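 These values rest on relative association constants, computed from read-count changes of each RNA species versus the control reaction and normalised to the cognate motif. Reads came from free RNA recovered by 8% native PAGE after purified RbFox RRM (wild type or mutant) at increasing concentrations was equilibrated for 10 min in 50 µL with 1 nM of a 5′-radiolabelled pool with 7 randomized nucleotides and DNA-annealed flanks.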
row,Binder,binding signal
1,B1,0.0971 KA relative to UGCAUGU
2,B2,0.041 KA relative to UGCAUGU
3,B3,0.062 KA relative to UGCAUGU
4,B4,0.106 KA relative to UGCAUGU
5,B5,0.151 KA relative to UGCAUGU
6,B6,0.103 KA relative to UGCAUGU
7,B7,0.104 KA relative to UGCAUGU
8,B8,0.0659 KA relative to UGCAUGU
9,B9,0.141 KA relative to UGCAUGU
10,B10,0.0564 KA relative to UGCAUGU
11,B11,0.0949 KA relative to UGCAUGU
12,B12,0.134 KA relative to UGCAUGU
13,B13,0.191 KA relative to UGCAUGU
14,B14,0.198 KA relative to UGCAUGU
15,B15,0.0446 KA relative to UGCAUGU
16,B16,0.0958 KA relative to UGCAUGU

row,Binder,binding signal
1,B17,0.0919 KA relative to UGCAUGU
2,B18,0.114 KA relative to UGCAUGU
3,B19,0.0842 KA relative to UGCAUGU
4,B20,0.125 KA relative to UGCAUGU
5,B21,0.0973 KA relative to UGCAUGU
6,B22,0.0743 KA relative to UGCAUGU
7,B23,0.111 KA relative to UGCAUGU
8,B24,0.0765 KA relative to UGCAUGU
9,B25,0.0943 KA relative to UGCAUGU
10,B26,0.168 KA relative to UGCAUGU
11,B27,0.097 KA relative to UGCAUGU
12,B28,0.134 KA relative to UGCAUGU
13,B29,0.117 KA relative to UGCAUGU
14,B30,0.0575 KA relative to UGCAUGU
15,B31,0.148 KA relative to UGCAUGU

# From article PMC9911399, “Two distinct binding modes provide the RNA-binding protein RbFox with extraordinary sequence specificity”
